The results in this text go back to the antibiotic and cytotoxicity screens of Wong et al. (2023).

The list shows a part of the results.

This assay concerns HSkMC (human skeletal muscle cells). The assay can be described thus: cytotoxicity call (relative viability < 0.9). The conditions noted are these: 10 µM.
Take `CCOC(=O)N(C)C[C@@H]1OCc2cn(nn2)CCCC(=O)N([C@H](C)CO)C[C@H]1C`: the cytotoxicity call was “inactive”. As to `C=CCOC(=O)[C@@H]1[C@@H]2C=C[C@@]3(O2)[C@@H]1C(=O)N(CCCCCCO)[C@H]3C(=O)N(CC=C)Cc1ccccc1`, the cytotoxicity call was “active”. To `Cn1[nH]c(=O)cc1C(F)(F)F` belongs “inactive”; to `C[C@@H]1O[C@@H](O[C@H]2[C@H](Oc3cc(O)c4c(=O)cc(-c5ccc(O)cc5)oc4c3)O[C@H](CO)[C@@H](O)[C@@H]2O)[C@H](O)[C@H](O)[C@H]1O`, “inactive”; to `O=C1CN2CCN3CCN([C@@H](CO)[C@@H](O)CO)CCN(CC2)CC(=O)[O][Gd]([O]1)[O]C(=O)C3`, “inactive”. Next, `CC(=O)NCC(=O)N1CCOC[C@]2(CC[C@@H](Cn3cccn3)O2)C1`: “inactive”. Next, `CO[C@@H]1[C@H](O)[C@@H](CO)O[C@H]1n1ccc(N)nc1=O`: “inactive”. As to `C[C@@H]1CN([C@@H](C)CO)C(=O)c2cc(NC(=O)c3ccncc3)ccc2O[C@@H](C)CCCCO[C@H]1CN(C)C(=O)Nc1ccc2c(c1)OCO2`, the cytotoxicity call is “inactive”.

As to `C[C@@H]1CCCCO[C@@H](CN(C)Cc2ccncc2)[C@H](C)CN([C@@H](C)CO)C(=O)c2cc(NC(=O)Cc3ccccc3)ccc2O1`, the cytotoxicity call is “inactive”.

For the compound `C[C@@H]1CN([C@@H](C)CO)C(=O)c2cc(NC(=O)Nc3cccc4ccccc34)ccc2O[C@@H](C)CCCCO[C@@H]1CN(C)S(=O)(=O)c1ccccc1`, the cytotoxicity call is “inactive”. For the compound `C[C@H](CO)N1C[C@H](C)[C@H](CN(C)Cc2ccncc2)Oc2cc(C#CCN(C)C)ccc2S1(=O)=O`, the cytotoxicity call is “inactive”. To `O=C(CN1CCOCC1)N[C@H]1CC[C@@H](CCNC(=O)Nc2cc(F)ccc2F)O[C@H]1CO` belongs “inactive”. Consider `C[C@H]1CCCCO[C@@H](CN(C)Cc2ccc(C(F)(F)F)cc2)[C@@H](C)CN([C@@H](C)CO)C(=O)c2cc(NC(=O)c3ccncc3)ccc2O1`, for which the cytotoxicity call is “inactive”. To `C[N+]1(C)C[C@H](O)[C@H](C(=O)O)C1` belongs “inactive”; to `[O-][NH2+]N1CCCCCCC1`, “inactive”; to `C[C@H]1CN([C@@H](C)CO)C(=O)c2cccc(NC(=O)C3CC3)c2O[C@@H]1CN(C)Cc1ccc(C(=O)O)cc1`, “inactive”.

As for `N#Cc1cn(C2CCCCC2)c(=O)[nH]c1=O`, the cytotoxicity call was “inactive”. Next, `CN(C)CC(=O)N[C@H]1CC[C@@H](CCNC(=O)C2CC2)O[C@H]1CO`: “inactive”.

Regarding `C[C@H](CO)N1C[C@H](C)[C@@H](CN(C)S(=O)(=O)c2ccccc2)Oc2ccc(NS(C)(=O)=O)cc2CC1=O`, the cytotoxicity call was “inactive”. As to `CC(C)(C)OC(=O)N1CC(C(=O)O)C1`, the cytotoxicity call was “inactive”. Next, `C[C@@H]1CN([C@@H](C)CO)S(=O)(=O)c2ccc(C#CC(C)(C)O)cc2O[C@H]1CN(C)Cc1ccncc1`: “inactive”. Turning to `C[C@@H]1CN([C@H](C)CO)C(=O)Cc2cc(NC(=O)Cn3cnnn3)ccc2O[C@H]1CN(C)C(=O)Nc1ccccc1`, the cytotoxicity call is “inactive”.

`CCOc1ccc(NC2=NC(=O)/C(=C/c3cc(Br)c(OCc4ccccc4)c(OC)c3)S2)cc1`: the cytotoxicity call is “inactive”.

With `CC1OC1P(=O)([O-])[O-].[Ca+2]` (stereo not given), the cytotoxicity call is “inactive”. On to `C[C@@H]1CN([C@H](C)CO)C(=O)c2c(c3ccccc3n2C)-c2ccccc2CO[C@H]1CN(C)C(=O)NC1CCCCC1`, for which the cytotoxicity call is “inactive”. As to `CN(C)CCCNC(=O)C[C@H]1C=C[C@@H](NC(=O)Cc2cccnc2)[C@@H](CO)O1`, the cytotoxicity call is “inactive”. Consider `O=C(c1ccc(-n2cnnn2)cc1)N1CCN([C@H]2CCS(=O)(=O)C2)CC1`, for which the cytotoxicity call is “inactive”. Regarding `C[C@@H]1CN([C@H](C)CO)C(=O)c2cc(-c3cccc(C#N)c3)cnc2O[C@H]1CN(C)C(=O)c1cnccn1`, the cytotoxicity call was “inactive”. Turning to `Cc1cc(C)c2[nH]c3ccccc3c2n1`, the cytotoxicity call was “inactive”.

`C[C@@H]1CN([C@@H](C)CO)C(=O)Cc2cc(NC(=O)Nc3ccc(C(F)(F)F)cc3)ccc2O[C@H]1CN(C)S(=O)(=O)c1ccc(Cl)cc1`: the cytotoxicity call is “inactive”.

Turning to `C[C@H]1CN([C@@H](C)CO)C(=O)Cc2cc(NC(=O)Nc3cccc(C(F)(F)F)c3)ccc2O[C@H]1CN(C)S(=O)(=O)c1ccc(Cl)cc1`, the cytotoxicity call was “active”.

For the compound `O=C(O)C[C@](O)(CC(=O)[O][Bi]1[O]C(=O)C[C@@](O)(CC(=O)O)C(=O)[O]1)C(=O)O`, the cytotoxicity call was “inactive”. Next, `C[C@@H]1CCCCO[C@@H](CN(C)C(=O)CCCN(C)C)[C@@H](C)CN([C@@H](C)CO)C(=O)c2cc(NC(=O)Nc3ccc(C(F)(F)F)cc3)ccc2O1`: “inactive”. To `Cc1c(C(=O)Nc2ccc(Oc3ccnc4cc(OCC(C)(C)O)ccc34)c(F)c2)c(=O)n(-c2ccccc2)n1C` belongs “active”; to `COc1ccc2c3c(n(c2c1)C)[C@H](CO)N(C[C@]13CN(C1)C(=O)Nc1cccc(c1)F)C(=O)CN1CCOCC1`, “inactive”. On to `C[C@H]1CN([C@@H](C)CO)C(=O)c2cc(NS(C)(=O)=O)ccc2O[C@@H]1CN(C)S(=O)(=O)c1ccc(F)cc1`, for which the cytotoxicity call is “inactive”. Consider `NS(=O)(=O)c1cc(C(=O)O)c(NCc2ccco2)cc1Cl`, for which the cytotoxicity call was “inactive”. `C[C@@H]1CCCCO[C@@H](CN(C)C(=O)Nc2ccc(C(F)(F)F)cc2)[C@@H](C)CN([C@H](C)CO)C(=O)c2cc(NC(=O)c3ccccc3)ccc2O1`: the cytotoxicity call is “inactive”. Next, `NCCCCCNC(=O)[C@@H]1C[C@@H]2C(=O)N[C@@H](Cc3ccccc3)C(=O)N2[C@@H]1c1cccc(OCCO)c1`: “inactive”; `CN1CCc2c(c3ccccc3n2Cc2ccccc2)C1`: “inactive”.
